Measurements as given in the supplement of paper PMC3334620.
The full ranking holds about 33,000 sequences; the median of “E-score (-0.5 to 0.5)” is about -0.017, and the highest 2% start at about 0.3. This is one part of the list.

target: T1, Sut1 (UniProt P53032); assay: PBM E-score (8-mer binding enrichment) (E-score (-0.5 to 0.5)); higher = stronger / more preferred TF binding; most listed sequences are background and not binding sites; settings: protein concentration: 200 nM; construct: GST-full length
T1 sequence: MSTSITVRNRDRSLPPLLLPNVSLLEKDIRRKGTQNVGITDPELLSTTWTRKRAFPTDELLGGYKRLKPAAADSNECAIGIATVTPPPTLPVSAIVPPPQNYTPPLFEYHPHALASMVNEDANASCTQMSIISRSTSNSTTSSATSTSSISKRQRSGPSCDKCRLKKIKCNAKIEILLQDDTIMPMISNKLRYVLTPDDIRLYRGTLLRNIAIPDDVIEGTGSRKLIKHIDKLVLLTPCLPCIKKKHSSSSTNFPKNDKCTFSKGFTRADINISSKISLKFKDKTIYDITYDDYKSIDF
Procedure: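 Universal 'all 10-mer' protein binding microarrays (Agilent AMADID 015681) probed with GST-tagged S. cerevisiae TFs (full-length or DBD) made by in vitro transcription/translation (PURExpress), about 100-200 nM. Bound TF was detected with fluorescent anti-GST. Each ungapped 8-mer (which stands for itself and its reverse complement) is scored by the PBM enrichment score (E-score), a modified Wilcoxon-Mann-Whitney statistic from -0.5 to +0.5, computed with the Universal PBM Analysis Suite. Scale: above 0.35 generally sequence-specific binding.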

| Sequence | PBM E-score |
| --- | --- |
| AGCTGCGC | -0.119 |
| TAAATCTA | 0.132 |
| AGGGAAGG | -0.277 |
| GCTCCCGA | -0.137 |
| CGAGGTCA | -0.0467 |
| CAAAATCA | 0.215 |
| TCTCAAGA | 0.00674 |
| AATAGAGC | 0.0828 |
| GGCCCGGA | 0.305 |
| AAGAGTAC | 0.0213 |
| CCGCGCCC | -0.185 |
| GTCTTGGA | 0.0857 |
| CGTATGGC | -0.0261 |
| CCCGTTAG | -0.0959 |
| AGGCCGGC | -0.11 |
| ATATGAAT | 0.227 |
| ACGCAAAC | -0.0168 |
| ACCCCAGC | -0.154 |
| ATTACGAA | 0.147 |
| CCCGACAG | -0.175 |
| CCCATCAG | -0.417 |
| TATTTTAA | 0.23 |
| CGGCATAG | -0.0919 |
| ATGTCTAG | 0.043 |
| CCTCGGTA | -0.0533 |

| Sequence | PBM E-score |
| --- | --- |
| CCCAGCCA | -0.00153 |
| ATACGTGA | 0.179 |
| CGCGTTAG | -0.133 |
| ACCTATGC | -0.0957 |
| ACGTCTTC | -0.0853 |
| ATGAACTA | 0.216 |
| AGGTGCTA | -0.0109 |
| GATGGTGC | -0.409 |
| TCCGGAGA | 0.409 |
| ACCAACTA | 0.141 |
| CCACCTAG | -0.239 |
| CATCATCG | 0.0778 |
| AAGACCGC | 0.107 |
| ATCTGACC | -0.00655 |
| ATTTACGA | 0.25 |
| GAGTGATC | 0.0533 |
| GCTGGGCA | -0.224 |
| TAGGCAGA | 0.0973 |
| AGCGTGAA | -0.182 |
| AGGTCCTC | -0.0783 |
| CGCTGTAC | -0.0533 |
| CGCCGTCA | -0.328 |
| ACCCTTCT | -0.0938 |
| TCCGCTAA | 0.105 |
| ACATGGGC | -0.0643 |

| Sequence | PBM E-score |
| --- | --- |
| GAGCGCGA | -0.0677 |
| CACGGAAG | -0.0741 |
| GCTGCTCC | -0.173 |
| AACGTAGC | -0.0733 |
| ATGACTTA | 0.156 |
| CTGTAGAC | -0.0463 |
| CGCGCGCG | -0.0395 |
| ATACTCGA | -0.0765 |
| CTGGATTA | 0.0735 |
| TCGCTGCA | -0.206 |
| TTACACAA | 0.162 |
| CGCCGTGC | -0.0961 |
| TCGATCGA | -0.057 |
| ACATTTAG | 0.0192 |
| GCTCGCGA | 0.0224 |
| GATAGGTA | 0.174 |
| AATCCTGG | -0.104 |
| CATCGCCA | -0.0767 |
| GATATCTA | 0.0817 |
| AAACCCTT | 0.0235 |
| AACTGGCC | -0.0834 |
| CCAAGATA | -0.0422 |
| AGCGTTAT | -0.0427 |
| ACGATGTC | -0.101 |
| CATGCCAG | -0.268 |

| Sequence | PBM E-score |
| --- | --- |
| GAAGGTGC | -0.107 |
| CGCTTAGA | -0.184 |
| GTTCTCTA | 0.119 |
| AGCGAACG | -0.208 |
| GATACAGA | 0.0796 |
| ACGAATCG | -0.00053 |
| CGGTTGCA | -0.231 |
| CGGAGCCG | 0.338 |
| GATACCTA | 0.166 |
| ATCATGAG | 0.0216 |
| CGTTTCTA | 0.0135 |
| ATTTCGCC | 0.0925 |
| CTTCTCGC | 0.0589 |
| CGGCTGAC | 0.0338 |
| AGCTACAC | -0.0563 |
| AGTGTTTG | 0.0374 |
| TACTAGCA | -0.0541 |
| TCCAGTAA | -0.133 |
| CCCACGAA | -0.113 |
| CTTAGGAC | -0.195 |
| CAGCAGCC | -0.193 |
| CCCATGCC | -0.337 |
| CACGCAAC | 0.125 |
| AACACCTA | -0.111 |
| ACGGTCAC | -0.215 |

| Sequence | PBM E-score |
| --- | --- |
| GCTACCCC | -0.202 |
| CGTACCAC | -0.0473 |
| CAGAAGGG | -0.238 |
| CCGCCAGA | -0.0923 |
| ACGCCACG | -0.226 |
| GACACACA | -0.0451 |
| ATCCGCCC | -0.171 |
| ACACGCAC | -0.147 |
| ACACTGTG | -0.122 |
| TCCGAACA | 0.399 |
| AAAGGGGA | -0.245 |
| CGCGCGAC | -0.181 |
| ATATATTA | 0.282 |
| GTGAACAC | -0.041 |
| GGCGCGAA | -0.0925 |
| AGTGACCA | 0.0114 |
| AGTAAGTG | -0.0333 |
| TCTTAGCA | -0.106 |
| TCGTTAGA | -0.105 |
| ACGAGTGA | -0.115 |
| ACAACATG | 0.0137 |
| ATGCGGAG | 0.259 |
| AGTTCTAT | 0.0966 |
| CTGTTGGC | -0.134 |
| TGTTAGAA | 0.215 |

| Sequence | PBM E-score |
| --- | --- |
| ACACCTAT | -0.111 |
| GTATAAAA | 0.317 |
| GCCTCTCA | -0.216 |
| CATCCCGA | 0.137 |
| GGCTGGGA | -0.153 |
| GGTTTCAC | 0.13 |
| GTAACTTA | 0.134 |
| CCCAGGCA | -0.237 |
| AACGGCCG | 0.101 |
| AACCTCTC | -0.13 |
| AGACGTAC | -0.163 |
| CCGTGAGG | -0.236 |
| CGATACTC | -0.0472 |
| GACCTTCC | 0.0118 |
| GTATGTAA | 0.174 |
| GACCGGTC | 0.0546 |
| ACACGGAC | 0.278 |
| CACAATTA | 0.131 |
| CCCGTAAA | 0.00847 |
| CATATTAG | 0.0699 |
| AGGCTCCA | -0.178 |
| ACATGGGA | -0.0411 |
| GGCTTGTA | -0.16 |
| GCGGCCAA | -0.066 |
| ATTCCTGG | -0.175 |

| Sequence | PBM E-score |
| --- | --- |
| GAAGGGGA | -0.322 |
| ATTACTAG | 0.0299 |
| ATCGGGAA | 0.0926 |
| CGTAGTTA | 0.17 |
| CCGATCAG | 0.0279 |
| TACCCAGA | 0.0156 |
| CACGCGTG | 0.0395 |
| ACGTTAAT | 0.146 |
| CACCGAAC | -0.0118 |
| AACCGTAC | -0.0756 |
| CCCCGTTC | 0.0147 |
| GTAATCAC | -0.13 |
| AGCGCACA | -0.0617 |
| GATAAGCC | -0.115 |
| ACCCACCG | -0.0418 |
| CCGCTCCA | -0.192 |
| ATTCCACC | 0.0638 |
| AAGGGAAT | -0.146 |
| ACTGACAC | 0.069 |
| GAGCCGAA | -0.0551 |
| AGGCGTGA | -0.209 |
| CAAGGCAG | -0.168 |
